This sample is rich in variants without activity.
B1: TPR 5TU (parent)
chain: GGAUCUUCUCGAUCUAACAAAAAAGACAAAUCUGCCACAAAGCUUGAGAGCAUCUUCGGAUGCAGAGGCGGCAGCCUUCGGUGGCGCGAUAGCGCCAACGUUCUCAACUAUGACACGCAAAACGCGUGCUCCGUUGAAUGGAGUUUAUCAUG

Variants of: B1
Assay: polymerase ribozyme fitness, log enrichment relative to wild type (log ratio); higher = more active; in vitro selection for triplet polymerase activity
How it was run: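 A heterodimeric triplet polymerase ribozyme had each of its subunits mutagenized by PCR into a library, which was transcribed. One round of in vitro selection, done in triplicate, annealed each library with a biotinylated primer, its partner subunit and triplets, then incubated it frozen at −7 °C before gel excision of extended constructs, streptavidin-bead capture and RT-PCR. Fitness is the logarithm of genotype enrichment relative to wild-type enrichment, based on Illumina sequencing of inputs and outputs and inverse-variance-weighted replicate averages. A base-2 logarithm is used, and genotypes were kept only with ≥10 input reads and ≥1 read per output.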

A49C A52C C93U and A49C A52G C69A C93G C149A cannot be ordered by “polymerase ribozyme fitness (log ratio)” value: at most -4.2 for the first, at most -4.2 for the second.

A49C A52G C85A C118A and A49C A52G C85U U101G U127G U144G cannot be ordered by “polymerase ribozyme fitness (log ratio)” value: at most -4.2 for the first, at most -4.2 for the second.

A49C A52G G58C G84A C131G G133C U145A and A49C A52U C85A A91G C95G G133C cannot be ordered by “polymerase ribozyme fitness (log ratio)” value: at most -4.2 for the first, at most -4.2 for the second.

A49C A52U G84A C105U G124U and A49C A60C G65C G88A C131U cannot be ordered by “polymerase ribozyme fitness (log ratio)” value: at most -4.2 for the first, at most -4.2 for the second.

A49C A60G A91G G143U and A49C A60G A91U G140A cannot be ordered by “polymerase ribozyme fitness (log ratio)” value: at most -4.2 for the first, at most -4.2 for the second.

A49C A60U A106C C108U and A49C A64C C93G C95G C99G C105G U135C A142G cannot be ordered by “polymerase ribozyme fitness (log ratio)” value: at most -4.2 for the first, at most -4.2 for the second.

A49C A64G G70C G88C G94A C114A and A49C A64U C75U C76U U135G cannot be ordered by “polymerase ribozyme fitness (log ratio)” value: at most -4.2 for the first, at most -4.2 for the second.

A49C A64U C87A U104G G143A and A49C A66C C85G U135G cannot be ordered by “polymerase ribozyme fitness (log ratio)” value: at most -4.2 for the first, at most -4.2 for the second.

A49C A73U C85U G100U C105U A138C and A49C A89U cannot be ordered by “polymerase ribozyme fitness (log ratio)” value: at most -4.2 for the first, at most -4.2 for the second.

A49C A89U A138U and A49C A91U C95A A107U cannot be ordered by “polymerase ribozyme fitness (log ratio)” value: at most -4.2 for the first, at most -4.2 for the second.

A49C A97G U148C and A49C A107G cannot be ordered by “polymerase ribozyme fitness (log ratio)” value: at most -4.2 for the first, at most -4.2 for the second.

A49C A107U and A49C A115G cannot be ordered by “polymerase ribozyme fitness (log ratio)” value: at most -4.2 for the first, at most -4.2 for the second.

A49C A115U and A49C A137C cannot be ordered by “polymerase ribozyme fitness (log ratio)” value: at most -4.2 for the first, at most -4.2 for the second.

A49C A142C U146A and A49C C51A C76A A91G G128A A138U cannot be ordered by “polymerase ribozyme fitness (log ratio)” value: at most -4.2 for the first, at most -4.2 for the second.

First: A49C C51A C99U C132G
Second: A49C C51G
The “polymerase ribozyme fitness (log ratio)” value of the first is lower: at most -4.2 for the first, -4.14 for the second.

A49C C51U C57A C95A C105A and A49C C51U C95U C96A G112A G126A cannot be ordered by “polymerase ribozyme fitness (log ratio)” value: at most -4.2 for the first, at most -4.2 for the second.

A49C C51U G68U G94C A119G A121U and A49C C51U U53A G140U G152A cannot be ordered by “polymerase ribozyme fitness (log ratio)” value: at most -4.2 for the first, at most -4.2 for the second.

Going from A49C C54A A91G to A49C C54A U78C C85U, the “polymerase ribozyme fitness (log ratio)” value rises from at most -4.2 to -3.91.

A49C C54A U78G C93U G124A and A49C C54U cannot be ordered by “polymerase ribozyme fitness (log ratio)” value: at most -4.2 for the first, at most -4.2 for the second.

A49C C54U A91G C96G G141A and A49C C54U U78G C79U G83U G143U cannot be ordered by “polymerase ribozyme fitness (log ratio)” value: at most -4.2 for the first, at most -4.2 for the second.

A49C C57G A66U G84A G88C A119C G140A and A49C C57U C76A C93A cannot be ordered by “polymerase ribozyme fitness (log ratio)” value: at most -4.2 for the first, at most -4.2 for the second.

A49C C57U C93U G100A A106U G140C and A49C C57U G74U U90A C93G C95U C103G A138C cannot be ordered by “polymerase ribozyme fitness (log ratio)” value: at most -4.2 for the first, at most -4.2 for the second.

Going from A49C C57U U101G to A49C C57U U102A, the “polymerase ribozyme fitness (log ratio)” value falls from -2.69 to at most -4.2.

A49C C69A A97U C105G A106G and A49C C69G C75A C76U A137C U139C cannot be ordered by “polymerase ribozyme fitness (log ratio)” value: at most -4.2 for the first, at most -4.2 for the second.

A49C C69U G84A C93U C96U C129G U148C and A49C C72A C108A U135G cannot be ordered by “polymerase ribozyme fitness (log ratio)” value: at most -4.2 for the first, at most -4.2 for the second.

A49C C72G G83A G88U A120G A150C and A49C C75A U102G G117U cannot be ordered by “polymerase ribozyme fitness (log ratio)” value: at most -4.2 for the first, at most -4.2 for the second.

A49C C75U C118U and A49C C75U G88U C118U cannot be ordered by “polymerase ribozyme fitness (log ratio)” value: at most -4.2 for the first, at most -4.2 for the second.

A49C C76G A121U and A49C C76U U90C C95A C105U cannot be ordered by “polymerase ribozyme fitness (log ratio)” value: at most -4.2 for the first, at most -4.2 for the second.

A49C C79G A89C C93U G152A and A49C C79U C85U A106G G124A cannot be ordered by “polymerase ribozyme fitness (log ratio)” value: at most -4.2 for the first, at most -4.2 for the second.

A49C C79U C85U C132A U134A and A49C C85A C95U A106G C108G A142U cannot be ordered by “polymerase ribozyme fitness (log ratio)” value: at most -4.2 for the first, at most -4.2 for the second.

A49C C85A U90G G94U A107G G141U and A49C C85G C96G C123A cannot be ordered by “polymerase ribozyme fitness (log ratio)” value: at most -4.2 for the first, at most -4.2 for the second.

First: A49C C85G G88A A106U G141C U144G
Second: A49C C85U
The “polymerase ribozyme fitness (log ratio)” value of the first is lower: at most -4.2 for the first, -3.49 for the second.

A49C C85U C96A A98U and A49C C87A A91U G141U G152U cannot be ordered by “polymerase ribozyme fitness (log ratio)” value: at most -4.2 for the first, at most -4.2 for the second.

A49C C87A C114U A150G and A49C C87G C99G U111C U151A cannot be ordered by “polymerase ribozyme fitness (log ratio)” value: at most -4.2 for the first, at most -4.2 for the second.

A49C C93A U104A A119C C132U G141C U145G and A49C C93G A119G cannot be ordered by “polymerase ribozyme fitness (log ratio)” value: at most -4.2 for the first, at most -4.2 for the second.

First: A49C C93U
Second: A49C C95U C96G
The “polymerase ribozyme fitness (log ratio)” value of the first is lower: at most -4.2 for the first, -3.85 for the second.

A49C C96A C105A U111G and A49C C99G A119U U151C cannot be ordered by “polymerase ribozyme fitness (log ratio)” value: at most -4.2 for the first, at most -4.2 for the second.

Compared with A49C C99U U102G, A49C C99U U145A is lower in “polymerase ribozyme fitness (log ratio)” value: -0.308 for the first, at most -4.2 for the second.

First: A49C C103A
Second: A49C C103G
The “polymerase ribozyme fitness (log ratio)” value of the first is higher: -3.96 for the first, at most -4.2 for the second.

A49C C103G A110C and A49C C105U A106G cannot be ordered by “polymerase ribozyme fitness (log ratio)” value: at most -4.2 for the first, at most -4.2 for the second.

A49C C108G and A49C C118A U127A A147U cannot be ordered by “polymerase ribozyme fitness (log ratio)” value: at most -4.2 for the first, at most -4.2 for the second.

With A49C C118G the “polymerase ribozyme fitness (log ratio)” value was at most -4.2.

— the RNAGym collection of RNA variant scans (doi:10.1073/pnas.2313332121)
